In patent US9789203B2, “cKIT antibody drug conjugates” (Novartis AG, priority 2013, dated 2017):

Legend:
rat cKIT ECD = assay: SPR (Biacore 2000) affinity measurement; format: binding; settings: 25° C., antibody captured, ECD in solution
Description: (§1) Affinity of the antibodies to cKIT species orthologues and also to cKIT was determined using SPR technology using a Biacore® 2000 instrument (GE Healthcare, Pittsburgh, Pa.) and with CM5 sensor chips.
(§2) Briefly, HBS-P (0.01 M HEPES, pH 7.4, 0.15 M NaCl, 0.005% Surfactant P20) supplemented with 2% Odyssey® blocking buffer (Li-Cor Biosciences, Lincoln, Nebr.) was used as the running buffer for all the experiments. The immobilization level and analyte interactions were measured by response unit (RU). Pilot experiments were performed to test and confirm the feasibility of the immobilization of the anti-human Fc antibody (Catalog number BR100839, GE Healthcare, Pittsburgh, Pa.) and the capture of the test antibodies.
(§3) For kinetic measurements, the experiments were performed in which the antibodies were captured to the sensor chip surface via the immobilized anti-human Fc antibody and the ability of the cKIT proteins to bind in free solution was determined Briefly, 25 μg/ml of anti-human Fc antibody at pH 5 was immobilized on a CM5 sensor chip through amine coupling at flow rate of 5 μl/minute on all two flow cells to reach 10,500 RUs. 0.1-1 μg/ml of test antibodies were then injected at 10 μl/min for 1 minute. Captured levels of the antibodies were generally kept below 200 RUs. Subsequently, 3.125-50 nM of cKIT receptor extracellular domains (ECD) were diluted in a 2-fold series and injected at a flow rate of 40 μl/min for 3 min over both reference and test flow cells. Table of tested ECDs is listed below. Dissociation of the binding was followed for 10 min. After each injection cycle, the chip surface was regenerated with 3 M MgCl2 at 10 μl/min for 30 s.

mouse cKIT ECD = molecular target: T1, mouse cKIT ECD (Mus musculus, UniProt P05532); assay: SPR (Biacore 2000) affinity measurement; format: binding; settings: 25° C., antibody captured, ECD in solution
T1 construct: 3.125-50 nM of cKIT receptor extracellular domains (ECD) were diluted in a 2-fold series
T1 sequence (P05532 25-527 limits assumed): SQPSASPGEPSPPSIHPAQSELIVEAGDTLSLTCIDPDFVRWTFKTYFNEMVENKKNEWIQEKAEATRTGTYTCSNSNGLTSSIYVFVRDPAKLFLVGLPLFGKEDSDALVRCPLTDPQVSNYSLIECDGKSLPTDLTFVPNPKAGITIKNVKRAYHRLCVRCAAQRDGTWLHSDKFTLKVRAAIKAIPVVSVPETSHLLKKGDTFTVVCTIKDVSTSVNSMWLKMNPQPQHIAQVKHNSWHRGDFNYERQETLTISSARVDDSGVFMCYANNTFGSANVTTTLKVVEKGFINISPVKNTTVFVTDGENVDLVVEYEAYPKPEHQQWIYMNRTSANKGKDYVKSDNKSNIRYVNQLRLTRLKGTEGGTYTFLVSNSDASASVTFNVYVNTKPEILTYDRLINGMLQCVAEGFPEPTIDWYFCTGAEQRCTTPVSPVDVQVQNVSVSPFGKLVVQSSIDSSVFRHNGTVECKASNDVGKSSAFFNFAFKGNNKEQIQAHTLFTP
Description: as §1, §2, §3

MO7e cells grown in SCF = assay: Mo7e proliferation in the presence of SCF (Cell titer Glo); format: cell-based, human; settings: 5 days, FIG. 15
Description: To evaluate the potential antagonistic properties of the naked antibodies and the ability of the antibody drug conjugates (ADCs) to inhibit the proliferation of a cKIT-expressing cell line, MO7e (DSMZ, Catalog # ACC-104, Braunschweig, Del.) were grown in the presence or absence of cKIT ligand, Stem Cell Factor (SCF), for survival. MO7e cells were grown in either 10 ng/ml human granulocyte-macrophage colony-stimulating factor GM-CSF (R&D Systems Cat#215-GM, Minneapolis, Minn.) or 10 ng/ml human Stem Cell Factor SCF (R&D Systems Cat#255-SC) prior to seeding in 96 well plates (Costar Cat #3904, Corning, Tewksbury, Mass.) at 5000 cells/well in 100 μl dilution medium. A duplicate plate was generated for a day 0 measurement and all plates were incubated in a tissue culture incubator at 37° C. with 5% CO2 overnight. Following this incubation, an additional 50 μl of dilution medium was added, followed by 90 μl/well of Cell titer Glo® reagent (Promega Cat# G7573, Madison, Wis.) to each well of the designated “day 0” plate. Assay plates were shaken gently for 20 min and the resulting luminescence intensity was measured using a Perkin Elmer 1450 Microbeta TriLux® plate reader (Perkin Elmer, Waltham, Mass.). Test naked Abs and ADCs were prepared at 3× concentration; 30 μg/ml in the appropriate cell culture medium and diluted serially 5-fold for 8 points. Medium only wells were also generated to act as negative controls. 50 μl of 3× serially diluted antibodies or ADCs were added (final assay concentration 0.0009-68 nM) prior to incubation in a tissue culture incubator at 37° C. with 5% CO2 for 5 days. Following this incubation period, relative cell viability was determined via the addition of Cell titer Glo reagent as described above. The effect of the ADCs on cell proliferation was calculated using the average of the duplicates as follows: (% Inhibition=(ADC or Ab treated)/(untreated)*100) The % inhibition data was fitted to a 4-parameter logistic equation and IC50 values were determined.

[1] = tested on: GIST-T1, GIST430, NCI-H526, NCI-H1048, CMK11-5, Uke-1 cells; assay: In vitro activity of cKIT-MCC-DM1 ADCs on GIST, SCLC and AML cell lines (Cell titer Glo); format: cell-based, human; settings: 5 to 8 days, IgG-MCC-DM1 as control, FIGS. 4-9
Description: Following conjugation to the MCC-DM1 linker-payload, the ability of the antibody drug conjugates (ADCs) to inhibit the proliferation of AML, SCLC and GIST cell lines was determined. For a listing of the cells used in these experiments by supplier see Example 10 above.
Briefly, cells were cultured in a tissue culture incubator at 37° C. with 5% CO2 in culture medium as recommended by the supplier. On the day of the assay, cells were washed twice with PBS (Cellgro, Cat #21-031-CV, Corning Tewksbury, Mass.), prior to being treated with 0.1% trypsin-EDTA (in-house technical services) for 5 min and resuspended in the recommended culture medium. Cells were then counted and seeded in 96 well plates (Costar catalog #3603, Corning, Tewksbury, Mass.) at densities of 5,000 cells/well for AML and SCLC cells and 10,000 cells/well for GIST cells in 100 μl of cell culture medium. A duplicate plate was generated for a day 0 measurement and all plates were incubated in a tissue culture incubator at 37° C. with 5% CO2 overnight. Following this incubation, 100 μl/well of Cell titer Glo® reagent (Promega catalog # G7573, Promega, Madison, Wis.) was added to the day 0 plates, which were then shaken gently for 2 min, incubated for 10 min, and the resulting luminescence intensity was measured using a Perkin Elmer Wallac Microbeta® Trilux plate reader (Perkin Elmer, Waltham, Mass.). Test ADCs were serially diluted to a 3× stock solution in the appropriate cell culture medium and 50 μl of 3× serially diluted ADCs were added (final assay concentration of 0.0002-68 nM DM1 equivalents) prior to incubation in a tissue culture incubator at 37° C. with 5% CO2 for 5 to 8 days. Following this incubation period, relative cell viability was determined via the addition of Cell titer Glo® reagent as described above. The effect of the ADCs on cell proliferation was calculated using the average of the duplicates as follows: (% of maximum affection (AMAX)=(untreated-highest ADC concentration treated)*100).
The % inhibition data was fitted to a 4-parameter logistic equation and GI50 values were determined. […]

B1: NEG024 (antibody)
heavy: EVQLVESGGGLVQPGGSLRLSCAASGFTFSDYYMAWVRQAPGKGLEWVANINQIAGSTYYLDSVRGRFTISRDNAKNSLYLQMNSLRAEDTAVYYCARGDYYGTTYWYFDVWGQGTTVTVSSASTKGPSVFPLAPSSKSTSGGTAALGCLVKDYFPEPVTVSWNSGALTSGVHTFPAVLQSSGLYSLSSVVTVPSSSLGTQTYICNVNHKPSNTKVDKRV[human IgG1 Fc omitted here]
light: EIVMTQSPATLSLSPGERATLSCRASQDISNYLNWYQQKPGQAPRLLIYYTSRLQSGIPARFSGSGSGTDYTLTISSLEPEDFAVYYCQQGKKLWSFGGGTKVEIKRTVAAPSVFIFPPSDEQLKSGTASVVCLLNNFYPREAKVQWKVDNALQSGNSQESVTEQDSKDSTYSLSSTLTLSKADYEKHKVYACEVTHQGLSSPVTKSFNRGEC
For B1, the “Affinity to rat cKIT” value (rat cKIT ECD) was “Not reactive”, the “Affinity mouse cKIT” value (mouse cKIT ECD) was “Not reactive” and the “inhibition of cell proliferation” value (MO7e cells grown in SCF) was “do not have this effect”. For the same molecule, the “inhibition of cell proliferation” value [1] was “very effective in reducing cell proliferation”.
